The campaign covered roughly 340,000 compounds. About 6,900 (2%) were called active. Rule as the data show it: active = inhibition above about 30%; inactive = below that, where a call was filed. This is a selection; strong and weak results do not stand in their true shares. Where no call is shown, the source filed none.
What follows are compounds tested against D(2) dopamine receptor (Homo sapiens) (UniProt P14416) (assay: HTS Assay for Allosteric Antagonists of the Human D2 Dopamine Receptor: Primary Screen for Antagonists). Conditions: HEK293 TREx D2 cells, calcium flux, dopamine EC80; at 10 µM; stronger effect = higher value.
Summary of the method: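 Calcium mobilization kinetics were recorded at 1 s intervals in tetracycline-induced HEK293 T-REx D2 cells, first for 180 s after compound addition and then 180 s after EC80 dopamine.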
Also: 0% is about no effect.

Chain of UniProt P14416 (P14416 whole entry, looked up): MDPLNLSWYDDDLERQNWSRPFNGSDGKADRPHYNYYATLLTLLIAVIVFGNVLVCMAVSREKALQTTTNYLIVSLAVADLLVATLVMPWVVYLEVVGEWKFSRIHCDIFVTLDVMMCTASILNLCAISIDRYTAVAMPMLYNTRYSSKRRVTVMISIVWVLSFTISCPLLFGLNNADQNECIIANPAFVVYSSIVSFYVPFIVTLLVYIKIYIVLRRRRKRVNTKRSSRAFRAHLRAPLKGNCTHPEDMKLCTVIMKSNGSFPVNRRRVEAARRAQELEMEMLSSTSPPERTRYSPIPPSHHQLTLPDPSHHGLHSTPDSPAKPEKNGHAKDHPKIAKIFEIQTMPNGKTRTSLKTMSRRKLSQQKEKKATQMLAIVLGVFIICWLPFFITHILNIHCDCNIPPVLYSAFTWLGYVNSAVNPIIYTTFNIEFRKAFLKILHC

First: CC(NC(=O)C1CCN(C(=O)N2CCOc3ccc(Cl)cc32)CC1)c1ccccc1 (stereo not given)
Second: CC(=O)c1cc(-c2ccc(F)cc2)n(CC(=O)NC(C)c2ccccc2)c1C (stereo not given)
The inhibition of the first is higher: 0.155% for the first, -9.23% for the second.

Compared with `COc1ccc(N2CCN(C(=O)c3nn(C)c4c3CS(=O)(=O)c3ccccc3-4)CC2)cc1`, `Cc1ccccc1NC(=O)Nc1ccc2nc(N3CCN(C)CC3)cc(C)c2c1` is higher in inhibition: -5.67% for the first, 9.25% for the second.

Going from `COc1ccc(-c2nc3c(c(SCc4cc(C)ccc4C)n2)Cc2c(CO)cnc(C)c2O3)cc1` to `COc1ccc(-c2noc(CSc3nnc(-c4ccccc4)n3-c3ccc(F)cc3)n2)c(OC)c1`, the inhibition rises from -6.43% to -2.79%.

Going from `COc1ccc(CCNC(=O)CS(=O)Cc2nc(-c3ccc(C)cc3)oc2C)cc1OC` (stereo not given) to `COc1ccc(-c2cc(OC(=O)c3ccc(F)cc3)c3c(C)oc(C)c3c(=O)c2)cc1OC`, the inhibition falls from 20% to 19.1%.

Going from `O=C(CCSCc1ccc(Cl)cc1)N1CCN(c2ccccc2F)CC1` to `O=C(NCc1ccccc1F)C1CCN(Cc2cc3ccccc3n2Cc2cccc(Cl)c2)CC1`, the inhibition falls from 3.7% to 3.66%.

First: CCN(c1ccccc1)S(=O)(=O)c1ccc(NC(=O)c2cc(=O)c3ccc(C)c(C)c3o2)cc1
Second: Cc1ccc(S(=O)(=O)N(CC(=O)N2CCc3ccccc3C2)c2ccc(C)c(C)c2)cc1
The inhibition of the first is higher: 3.33% for the first, -22.5% for the second.

Going from `Cc1ccc2c(CC(=O)Nc3c(C(=O)c4ccc(F)cc4)oc4ccccc34)coc2c1` to `Cc1nc2nc(NC(=O)c3ccc(F)cc3)[nH]n2c(=O)c1Cc1ccccc1`, the inhibition falls from -2.77% to -11.2%.

Going from `Cc1nc2c(c(C)nn2-c2ccccc2)c(C)c1CCC(=O)Nc1ccc(F)cc1` to `CCOC(=O)c1c(C)c(-c2ccccc2)n(CC(=O)Nc2cccc(F)c2)c1C`, the inhibition rises from -12% to -3.19%.

Compared with `COc1cc(Nc2nc(SCc3cccc(Cl)c3)nc3ccccc23)cc(OC)c1`, `COc1ccc(Nc2ncc(C(=O)Nc3cc(Cl)c(OC)cc3OC)c3ccccc23)cc1` is lower in inhibition: 0.481% for the first, -4.07% for the second.

Going from `Fc1ccc(Nc2c3c(nc4nncn24)CCC3)cc1` to `O=C(Nc1cc(F)ccc1F)c1ccc2c(c1)nnn2C1CCCC1`, the inhibition rises from -8.56% to 1.09%.

Compared with `Cc1cc(C)n(-c2nnc(Nc3ccc(C(C)C)cc3)c3ccccc23)n1`, `Cc1ccc(Cl)cc1NC(=O)C(NS(=O)(=O)c1cccc2nsnc12)c1ccccc1` (stereo not given) is lower in inhibition: 8.86% for the first, -7.36% for the second.

Going from `COc1ccc(CNCc2ccc3c(c2)n(C)c(=O)n3C)cc1` to `CCCC(=O)Nc1cc(C(=O)NCc2ccc(OC)cc2)ccc1S(=O)(=O)c1ccc(Cl)cc1`, the inhibition rises from -1.61% to 9.57%.

Going from `COc1cccc(C(=O)NC(=O)Nc2ccc(-n3nc(C(F)(F)F)cc3C(F)(F)F)cc2)c1` to `CC(=O)c1ccc(NC(=O)C2=CC(c3cccs3)=NS(=O)(=O)N2C)cc1`, the inhibition falls from -0.699% to -2.48%.

Going from `O=C(COCc1cc(-c2cccs2)on1)NCc1ccccc1Cl` to `Cc1nn(CC(=O)NCc2ccccc2Cl)c(=O)c2cccn12`, the inhibition rises from 3.4% to 19.8%.

First: COc1cc(C2c3c(oc4ccccc4c3=O)C(=O)N2c2nc(C)c(C)s2)ccc1O (stereo not given)
Second: COc1cccc(C2CC(=O)Nc3c2c(=O)nc2c(C)cccn32)c1 (stereo not given)
The inhibition of the first is lower: 3.28% for the first, 7.2% for the second.

Going from `Cn1c(=O)oc2cc(S(=O)(=O)CCC(=O)NCCc3ccccc3)ccc21` to `COC(=O)c1sccc1S(=O)(=O)N(CC(=O)NCc1ccccc1)c1ccc(C)c(C)c1`, the inhibition rises from 5.1% to 8.87%.

Compared with `Cc1cccn2c(=O)c(/C=C(\C#N)c3nc4ccccc4s3)c(Oc3ccc(Br)cc3)nc12`, `Cc1cccc(NC(=O)CN2c3ccccc3S(=O)(=O)c3ccccc32)c1C` is lower in inhibition: 4.65% for the first, -8.09% for the second.

Going from `COc1ccc(NC(=O)C2CCCN(S(=O)(=O)c3ccc(Cl)cc3)C2)cc1` (stereo not given) to `COc1ccc(NC(=O)C2CCCN(S(=O)(=O)c3c(C)n[nH]c3C)C2)cc1OC` (stereo not given), the inhibition falls from 12% to -9.05%.

Compared with `Cc1ccc(C)c(N2CCN(c3nccn4nc(-c5ccc(Br)cc5)cc34)CC2)c1`, `CCc1ccc(CNC(=O)C2CCCN(c3nn4cc(-c5ccc(F)cc5)nc4s3)C2)cc1` (stereo not given) is higher in inhibition: 2.12% for the first, 5.05% for the second.

Compared with `Cc1ccc(Cc2c(C)nn(-c3nc(C)c(C(=O)N4CCCCC4C)s3)c2C)cc1` (stereo not given), `CCOC(=O)C1CCN(C(=O)C2CCN(c3nnc(C)c4c(C)n(-c5ccccc5)nc34)CC2)CC1` is lower in inhibition: 4.87% for the first, -9.56% for the second.

First: CCOC(=O)c1ccccc1NC(=O)N1CCCN(S(=O)(=O)c2ccc3c(ccn3CC)c2)CC1
Second: Cc1cccc(NC(=O)CN2C(=O)COc3ccc(S(=O)(=O)N4CCC(C)CC4)cc32)c1C
The inhibition of the first is lower: -12% for the first, 18.5% for the second.

Compared with `Cc1cccc(-c2nc(CCNC(=O)c3ccccc3Br)cs2)c1`, `O=C(Nc1noc2ccccc12)c1c(F)cccc1F` is lower in inhibition: 20.2% for the first, -6.44% for the second.

Compared with `CCOc1ccc(-c2nc3c(C#N)c[nH]n3c2NC2CCCCC2)cc1`, `CCOc1ccc(NC(=O)CCS(=O)(=O)c2ccc(Br)s2)cc1` is lower in inhibition: -3.03% for the first, -15.1% for the second.

First: CCCCNC(=O)CCn1c(=O)c2cccn2c2ccc(F)cc21
Second: CCCn1c2ccccc2c2cnn(CC(=O)NCCc3ccc(OCC)c(OCC)c3)c(=O)c21
The inhibition of the first is lower: 10.3% for the first, 11.9% for the second.

First: CCOC(=O)CNC(=O)c1cc2c(=O)n3cccc(C)c3nc2s1
Second: O=C(Nc1ncc(Cc2ccc(Cl)cc2)s1)c1ccc2c(c1)CC(c1ccccc1)OC2=O (stereo not given)
The inhibition of the first is higher: -8.18% for the first, -14.7% for the second.

For `COc1cccc2c1[C@@H]1CN(CCCCn3c(=O)[nH]c4c(sc5ncc(-c6ccccc6)nc54)c3=O)C[C@@H]1CO2`, the inhibition was active: 55.8%.
For `O=C(CCNS(=O)(=O)c1cccc2nonc12)NC1CCCCC1`, the inhibition was active: 30.5%.
`Cc1ccccc1C(=O)NC1CC2CCC(C1)N2Cc1ccccc1` (stereo not given) was tested, and the inhibition was active: 71.7%.
In the case of `CC(C)NC(=O)c1ccc(C2SCC(=O)N2Cc2ccccc2)cc1` (stereo not given), the inhibition is reported as active: 50.3%.
With `Cc1ccc(C)c(N2CCN(CCCNC(=O)CCC(=O)N3CCOc4ccc(Cl)cc43)CC2)c1` the inhibition was active: 55.7%.
`COCC(=O)N(Cc1nc2sc(C)c(C)c2c(=O)[nH]1)C1CCCCC1` was tested, and the inhibition was active: 31.1%.
For `O=C(c1ccccc1)c1ccc2c(c1)OCCOCCOCCOCCO2`, the inhibition was active: 50.3%.
In the case of `O=C(Cn1c(N2CCN(C/C=C/c3ccccc3)CC2)nc2ccccc21)c1ccccc1`, the inhibition is reported as active: 47.6%.
`CCOc1cc(CNCCc2ccc(S(N)(=O)=O)cc2)ccc1OCc1ccc(Cl)cc1` was tested, and the inhibition was active: 64.9%.
For `Cc1ccc(N2C(=O)C3C(C2=O)C(C(=O)c2ccc(Cl)cc2)N2CCCC32)cc1` (stereo not given), the inhibition was active: 33.2%.
